PubChem BioAssay AID493208 (National Center for Advancing Translational Sciences (NCATS), 2011)
Among all 44,000 compounds or so, about 340 (0.77%) were called active. Inconclusive results (about 5%) are left out. The call rests on the fitted dose curve; in most records, active means well fitted inhibition curve with a large enough effect; inconclusive means small, poorly fitted or top-dose-only effect; inactive means flat fitted curve, though single readings scatter. This is one part of the list.

Assay: Acumen qHTS Assay for Inhibitors of the mTORC1 Signaling Pathway in MEF (Tsc2-/-, p53-/-) Cells: Sytravon;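 further: plate controls were DMSO for no effect and rapamycin for full effect; nearly all actives have a fitted effect of over 50% in size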
Conditions: phospho-rpS6 immunofluorescence/PI, 24 h; series mostly up to 38.3 µM; activity change, negative = inhibition: at the top concentration
Method in brief: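 Tsc2-/-, p53-/- mouse embryonic fibroblasts (empty-vector line) exposed to compound 24 hrs at 37 C, fixed, immunostained for phospho-rpS6 and counterstained with propidium iodide. Acumen laser scanning gives % positive cells from Alexa 488/PI ratio, thresholded using 7.5 nM rapamycin; PI count gives viability.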

Activity change, negative = inhibition, inactive:
COc1ccc(C2=NC(C)(C)N(CC(=O)Nc3cccc(C)c3)C2=O)cc1 -2.91%
CC1=C(C(=O)Nc2ccc(Cl)cc2)C(CC(C)C)n2nc(SCc3ccccc3C)nc2N1 (stereo not drawn) 1.53%
Cc1ccc(S(=O)(=O)Nc2nc3n(n2)C(c2ccc(F)cc2)C=C(c2ccccc2)N3)cc1 (stereo not drawn) -2.73%
COc1cc(C2C(=O)N(C3CCCCCC3)CC(=O)N2CCc2ccccc2)ccc1OC(C)C (stereo not drawn) 3.22%
Cc1ccc(C)c(-n2c(N)c(C#N)c3nc4ccccc4nc32)c1 4.12%
Cc1nc2ccn(Cc3ccco3)c(=O)c2cc1C(=O)NCc1ccccc1 1.79%
COc1ccccc1CNS(=O)(=O)c1cnc(N)nc1 -2.68%
O=C(NCC(c1ccco1)S(=O)(=O)c1cccs1)c1ccccc1F (stereo not drawn) -1.15%
COc1cccc(CNc2cc(C)nc3nc(-c4ccc(C)cc4)nn23)c1 -11.1%
COc1ccc(C2c3c(n(C)c4ccccc34)C(=O)N2CC(=O)Nc2cccc(F)c2)cc1 (stereo not drawn) -8.85%
CCCc1cc(=O)[nH]c2nnc(SCC)n12 -0.0451%
O=c1oc2ccc3ccccc3c2cc1-c1nnc(Nc2ccc(F)cc2)s1 0.244%
Cc1ccc(N2CC(C)Cn3c2nc2c3c(=O)n(Cc3cccc(Cl)c3)c(=O)n2C)cc1 (stereo not drawn) 0.411%
COc1ccc(NC(=O)c2oc3ccc(S(=O)(=O)N4CCOCC4)cc3c2C)cc1 -22.6%
Cc1ccc(-n2nc3c(=O)n(C(C)C(=O)NCc4ccco4)nc(C)c3c2C)cc1 (stereo not drawn) 0.0523%
Cc1ccc(Cl)cc1N1CCN(CCCNC(=O)c2ccc3nc(N4CCCCC4)sc3c2)CC1 -2.67%
CCn1ccc2c(OCC(=O)Nc3ccccc3C(F)(F)F)cccc2c1=O -5.98%
O=C(NC1(C(F)(F)F)NC(=O)N(CCc2ccccc2)C1=O)c1ccc(Cl)cc1 (stereo not drawn) -3.21%
COC(=O)CC1Oc2ccc(Cl)cc2-n2cc(-c3ccccc3)nc21 (stereo not drawn) -9.12%
Oc1c(C(c2ccccc2)N2CCC(O)CC2)sc2nc(-c3ccco3)nn12 (stereo not drawn) -0.661%
CCOc1ccc(CCNC(=O)c2cnc3sc(N4CCCC4)nn3c2=O)cc1 0%
CCCCOc1cccc(C(=O)N(Cc2ccc(C)o2)c2ccccn2)c1 -21.4%
COc1ccc(NS(=O)(=O)c2ccc3[nH]c4c(c3c2)CCCC4)cc1OC -17.1%
Cc1ccc(C)c(NC(=O)c2ccc(CN3CC(=O)N4CCCCC4C3=O)cc2)c1 (stereo not drawn) -0.265%
CCn1c(CN2CCCCC2)nc2cc(NC(=O)c3cc(OC)c(OC)c(OC)c3)ccc21 -12.8%
CC(=O)Nc1ccc(NC(=O)c2ccc3c(c2)N(Cc2cccc(Cl)c2)C(=O)c2ccccc2S3(=O)=O)cc1 -17.7%
CCOC(=O)C(C)Sc1ccc2nnc(CCNS(=O)(=O)c3ccccc3)n2n1 (stereo not drawn) 2.55%
CC1N=C2c3ccccc3N=C(SCC(=O)NCCc3ccccc3)N2C1=O (stereo not drawn) 0%
COc1ccc(Nc2c3c(nc4ccc(NC(=O)c5ccc(F)cc5)cc24)CCCC3)cc1OC 0.239%
CN(Cc1ccccc1)C(=O)c1nc(-c2ccc(Cl)cc2)n2c1CCCCC2 -15.7%
COc1cc2ccccc2cc1C(=O)Nc1cccc(-c2nc3cc(C)c(C)cc3o2)c1C 4.5%
COc1ccc2oc(=O)c(C(=O)NCCc3c(C)[nH]c4c(Cl)cccc34)cc2c1 -26.4%
O=C(Nc1cccc(Cl)c1Cl)c1ccc2c(c1)N(Cc1cccc(Cl)c1)C(=O)c1ccccc1S2(=O)=O -7.29%
Cc1nc2nc(NCc3cccc(Br)c3)[nH]n2c(=O)c1Cc1ccccc1 3.05%
CCc1ccccc1NC(=O)N1CCN(c2cc(-c3noc(C)n3)ccc2C)CC1 -3.81%
CCOC(=O)c1cccc(NC(=O)C(CC(C)C)N2Cc3ccccc3C2=O)c1 (stereo not drawn) -6.55%
O=S(=O)(Nc1ccc(Cl)cc1)c1ccc(NS(=O)(=O)c2ccc3c(c2)OCCO3)cc1 0.231%
Cc1ccc(CN(C(=O)COc2cccc([N+](=O)[O-])c2)c2ccccn2)o1 1.18%
Cn1nnnc1SCCNCc1ccc(F)cc1 -0.409%
COc1cc(-c2noc(-c3ccc(NCc4cccnc4)c([N+](=O)[O-])c3)n2)cc(OC)c1OC 0.183%
COc1ccc(OC)c(CNC(=O)CCCn2ccc3cc(S(=O)(=O)N4CCCC4)ccc32)c1 -14.3%
CCCc1cc(=O)[nH]c(Nc2ccc(C(=O)O)cc2)n1 -3.82%
CCOc1ccc(CCNC(=O)CCCn2nc(C)c3sc4ccccc4c3c2=O)cc1OCC 0.279%
O=C(CSc1nccn1-c1ccccc1)Nc1nc2ccccc2s1 -9.34%
CCOc1ccc(CNC(=O)CCC(=O)N2CC(C)Sc3ccccc32)cc1 (stereo not drawn) 0.613%
COC(=O)CC1c2cc(OC)c(OC)cc2CCN1C(=O)Nc1ccc(C)cc1Cl (stereo not drawn) 0%
COc1ccccc1Nc1nn2c(=O)c3ccc(C(=O)NCCCOC(C)C)cc3nc2s1 -10.7%
CCn1c2ccccc2c2nnc(SCCN3CCCCC3)nc21 -11.8%
N#C/C(=C/c1cn(Cc2ccc(F)cc2)c2ccccc12)C(=O)Nc1cccc(Cl)c1 9.87%
CCc1ccc(CNC(=O)c2cccc(-n3cnc4cccnc43)c2C)cc1 -10.2%
CCOc1ccc(OCC)c(NC(=O)Cn2ncc3c4ccccc4n(Cc4ccccc4)c3c2=O)c1 0.128%
Cn1ccc2cc(S(=O)(=O)N3CCCN(C(=O)Nc4ccccc4Br)CC3)ccc21 -7.39%
CCC1CN(C(=O)N2CCC(C(=O)NCCN(C)C)CC2)c2ccccc2O1 (stereo not drawn) 7.64%
Cc1ccc(NC(=O)c2cnc(SCC(=O)N3CCOCC3)n(C)c2=O)cc1 -15.6%
COc1cccc(NC(=O)CN(C)S(=O)(=O)c2ccc3nc(C)sc3c2)c1 1.6%
COc1ccc(C)cc1N(C)C(=O)c1c(C)oc2ncnc(N3CCOCC3)c12 -3.81%
CN(c1ccc(Cl)cc1)S(=O)(=O)c1nnc(NC(=O)C2CCCCC2)s1 5.79%
COc1cc(C(=O)Oc2c(Sc3ccc(C)cc3)c(C)nn2-c2ccccc2)cc(OC)c1OC 26.6%
CCOc1ccccc1NC(=O)c1c(NC(=O)c2ccccc2C)sc2c1CCC(C)C2 (stereo not drawn) 0.727%
CCNC(=O)c1cnc2sc(N3CCCCCC3)nn2c1=O 1.54%
COC(=O)c1c(C)sc(-c2c(-c3ccc4c(c3)OCCO4)[nH]c3c2c(=O)n(C)c(=O)n3C)c1O -1.12%
O=C(NCCc1ccc(Cl)cc1)c1ccc(CS(=O)Cc2cccc(Cl)c2)o1 (stereo not drawn) -9.16%
CCC(C)NC(=O)c1cnn(-c2ccc(Cl)cc2)c1C1CCN(C(=O)OC(C)(C)C)CC1 (stereo not drawn) -5.4%
COC(=O)c1n[nH]n(-c2ccccc2)c1=O -0.156%
Nc1nnc(SCC(=O)Nc2ccccc2C(F)(F)F)s1 -21.5%
Cc1cccc(NC(=O)C2CCCN(S(=O)(=O)c3cnc[nH]3)C2)c1C (stereo not drawn) 1.68%
CN(C1CCCCC1)S(=O)(=O)c1ccc2c(c1)c(=O)c(C(=O)NCCc1ccccc1)cn2C 0.916%
Cn1c(=O)c2cc(C(=O)N3CCN(c4ccc(Cl)cc4)CC3)sc2c2ccccc21 0.391%
CCOC(=O)c1cc(NC(=O)c2ccc(F)cc2)c(=O)n2c1oc1ccccc12 -2.2%
Cc1oc(-c2ccc(C(=O)Nc3cc(F)ccc3F)cc2)nc1COc1ccccc1 -5.97%
CCNC(=O)Cc1ccc(NC(=O)N2CCCCc3ccccc32)cc1 -3.23%
CCN(CC)c1nn2c(=O)c(C(=O)NCc3ccc(F)cc3)cnc2s1 2.88%
CCCn1c2ccccc2c2cnn(CC(=O)NCCc3ccc(OC)cc3OC)c(=O)c21 -9.56%
Cc1nc(-c2ccccc2)sc1CCNS(=O)(=O)c1ccc(Br)cc1 -14.1%
CCn1nc(C)c(CCN(C)C(=O)Nc2cc(Cl)ccc2C)c1C 9.8%
COc1ccc(CC(=O)NCCc2csc(-c3ccc(Cl)cc3)n2)cc1 -6.42%
O=C(Nc1ccc(Cl)cc1)N1CCN(c2ccc3nnc(-c4ccc(F)cc4)n3n2)CC1 -6.37%
Cc1ccc(-n2nc(CO)c(C(=O)NCc3cccs3)n2)cc1 3.92%
COc1ccccc1CCNC(=O)C(=O)NCC(c1ccco1)S(=O)(=O)c1ccc(C)cc1 (stereo not drawn) -14%
Cc1cc(NC(=O)Nc2nc3c(s2)CCCCCC3)ccc1Br -2.38%
CCCCn1c(CNC(=O)c2ccc(OC)cc2)nnc1SCC(=O)Nc1ccc(OC)cc1 -0.734%
Cc1ccc(NCc2nc3ccccc3n2CCOc2ccccc2)cc1 -0.415%
COc1ccccc1Nc1cc(C(=O)NCc2cccs2)c2ccccc2n1 1.32%
CCC(=O)N1CCc2cc(S(=O)(=O)CCC(=O)NCc3ccccc3OC)ccc21 -1.73%
COc1ccc2nc3oc(C(=O)NCc4ccccc4OC)cc3cc2c1 -2.77%
NC(=O)CSc1ncc2c(n1)-c1ccccc1N(Cc1cccc(F)c1)S2(=O)=O -5.91%
COc1ccc(-c2noc(-c3nnn(-c4cc(C)ccc4C)c3N)n2)cc1 -5.02%
COc1ccccc1-c1nnc(C2CCN(C(=O)c3ccc(C)cc3)CC2)o1 10.1%
CC1(C)CC(=O)c2c(oc3c(Cl)cc(NS(=O)(=O)c4ccc(Cl)cc4)cc23)C1 -5.72%
Cc1ccc(-c2nc(CS(=O)CC(=O)N3CCN(c4ccc(Cl)cc4)CC3)c(C)o2)cc1 (stereo not drawn) -12.9%
CN(C)S(=O)(=O)c1ccc2c(c1)N(CC(=O)N1CCN(c3ccc(F)cc3)CC1)CCS2 0.8%
CC1CCN(c2ccc(-c3nc(C(C)C)no3)cc2[N+](=O)[O-])CC1 0.411%
Cc1ccc(-n2ncc(C(=O)NCCc3ccsc3)c2C2CCN(C(=O)OC(C)(C)C)CC2)cc1C 6.51%
Cc1nc2ccccc2c(=O)n1-c1ccc(NC(=O)C(F)(F)F)cc1 0.777%
Cc1cc(NC(=O)CSc2ncc(C(=O)Nc3ccc(F)cc3)c(=O)n2C)no1 0.223%
O=C(CC(NCc1cccnc1)C(=O)O)Nc1ccc(F)cc1 (stereo not drawn) 2.97%
O=c1oc2ccc(Br)cc2cc1-c1csc(-c2ccc(Cl)cc2)n1 -1.16%
C=Cc1ccc(Cn2c(C(=O)O)c(CNCc3cc(Br)ccc3OC)c3ccc(C)cc32)cc1 -0.717%
